From paper PMC5892938 come the findings set out here.

The list shows a part of the results. At the low end of the ranking, values are background and their order means little.

The assay addresses GST-SBP-SLBP (stem-loop binding protein) (UniProt Q14493). The experiment in a line: targeted RNA Bind-n-Seq.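 Note: DESeq read counts versus GST-SBP nonspecific binding control pulldown.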 The following applies: RBNS binding buffer: 25 mM Tris pH 7.5, 150 mM KCl, 3 mM MgCl2, 0.1% Tween, 0.5 mg/mL BSA, 1 mM DTT; 27 nM protein, 750 pM RNA pool; temperature not stated; high values mean tight binding.
Turning to “GGUCACGUCUCAAUCAACUCUAUGGAGGGGGGGAAAACCCCUUUACCCUCAAAUUCAACAGCUCGCAGUCAAG”, the binding signal (log2 fold change) is -0.201.

“GGUCACGUCUCAAUCAACUCUUUCCCCAGGGAAAUCCCUGGCUUACUCAACAGCUCGCAGUCAAG”: the binding signal (log2 fold change) was -0.218.

In the case of “GGUCACGUCUCAAUCAACUCUUUCCCAGGAGUUUUCUCCUGUUAUGUCAACAGCUCGCAGUCAAG”, the binding signal (log2 fold change) is 0.376. With “GGUCACGUCUCAAUCAACUCAACGCCAGGAGUUUGCUCCUGUAUUUUCAACAGCUCGCAGUCAAG”, the binding signal (log2 fold change) came out at 0.123. The result for “GGUCACGUCUCAAUCAACUCAAUCCCCAGGGAAAACCCUGGCUUAUUCAACAGCUCGCAGUCAAG” reads 0.152. Turning to “GGUCACGUCUCAAUCAACUCUUCUUCCAGGGAAAGCCCUGGCUAAUUCAACAGCUCGCAGUCAAG”, the binding signal (log2 fold change) is -0.184. The figure for “GGUCACGUCUCAAUCAACUCAGUCUCAGGAGUUUCCUCCUGUAUAUUCAACAGCUCGCAGUCAAG” is -0.0862. With “GGUCACGUCUCAAUCAACUCAAUCCCAGGAGUUUACUCCUGCAAAUUCAACAGCUCGCAGUCAAG”, the binding signal (log2 fold change) was -0.305. The result for “GGUCACGUCUCAAUCAACUCAAUCCCCAGGGAAACCCCUGGUUUUUUCAACAGCUCGCAGUCAAG” reads 0.223. The figure for “GGUCACGUCUCAAUCAACUCUAUAGAGGGGGGGAAAACCCCUUUGCCCUCAUCGUCAACAGCUCGCAGUCAAG” is 0.131. The figure for “GGUCACGUCUCAAUCAACUCAACUCCAGGAGUUUGCUCCUGCUAAUUCAACAGCUCGCAGUCAAG” is -0.0621; for “GGUCACGUCUCAAUCAACUCUUCCCCCAGGGAAACCCCUGGUUUUCUCAACAGCUCGCAGUCAAG” it is 0.0328; for “GGUCACGUCUCAAUCAACUCAUCCCCAGGAGUUUACUCCUGCUUUUUCAACAGCUCGCAGUCAAG” it is 0.0768. On to “GGUCACGUCUCAAUCAACUCAACUUCAGGAGUUUACUCCUGCAAUCUCAACAGCUCGCAGUCAAG”, for which the binding signal (log2 fold change) is 0.00286. “GGUCACGUCUCAAUCAACUCAACUCCCAGGGAAAUCCCUGGUUAUUUCAACAGCUCGCAGUCAAG”: the binding signal (log2 fold change) is 0.0344. Consider “GGUCACGUCUCAAUCAACUCUCACGAGGGGGGGAAAACCCCUUUGCCCUCAAAAUCAACAGCUCGCAGUCAAG”, for which the binding signal (log2 fold change) is -0.427. The result for “GGUCACGUCUCAAUCAACUCUUUUUCCAGGGAAAACCCUGGUUUACUCAACAGCUCGCAGUCAAG” reads -0.0858. In the case of “GGUCACGUCUCAAUCAACUCUUUCUCAGGAGUUUCCUCCUGUUAUCUCAACAGCUCGCAGUCAAG”, the binding signal (log2 fold change) is -0.082.

For “GGUCACGUCUCAAUCAACUCACACGAGGGGGGGAAAACCCCUUUGCCCUCACAAUCAACAGCUCGCAGUCAAG”, the binding signal (log2 fold change) was found to be 0.271. The result for “GGUCACGUCUCAAUCAACUCAUCUCCAGGAGUUUCCUCCUGUAUACUCAACAGCUCGCAGUCAAG” reads 0.117; that for “GGUCACGUCUCAAUCAACUCUUCCCCAGGAGUUUUCUCCUGUUUUCUCAACAGCUCGCAGUCAAG”, -0.087; that for “GGUCACGUCUCAAUCAACUCAUUCCCAGGAGUUUGCUCCUGCAUAUUCAACAGCUCGCAGUCAAG”, 0.16.

Turning to “GGUCACGUCUCAAUCAACUCUAUCUCAGGAGUUUUCUCCUGUAUAUUCAACAGCUCGCAGUCAAG”, the binding signal (log2 fold change) was -0.0324. “GGUCACGUCUCAAUCAACUCAACUUCCAGGGAAAGCCCUGGUAUACUCAACAGCUCGCAGUCAAG”: the binding signal (log2 fold change) was 0.282. As to “GGUCACGUCUCAAUCAACUCAAUCCCAGGAGUUUGCUCCUGCUUAUUCAACAGCUCGCAGUCAAG”, the binding signal (log2 fold change) turned out to be 0.0422. The result for “GGUCACGUCUCAAUCAACUCCUUAGAGGGGGGGAAAACCCCUUUACCCUCAAUCUCAACAGCUCGCAGUCAAG” reads -0.444; that for “GGUCACGUCUCAAUCAACUCAACUUCAGGAGUUUGCUCCUGCAUAUUCAACAGCUCGCAGUCAAG”, 0.171.

As to “GGUCACGUCUCAAUCAACUCUCUCGAGGGGGGGAAAACCCCUUUACCCUCUCCAUCAACAGCUCGCAGUCAAG”, the binding signal (log2 fold change) was 0.264. Take “GGUCACGUCUCAAUCAACUCAUUUCCAGGAGUUUCCUCCUGCUUAUUCAACAGCUCGCAGUCAAG”: the binding signal (log2 fold change) was found to be 0.0717. The result for “GGUCACGUCUCAAUCAACUCUUACGAGGGGGGGAAAACCCCUUUACCCUCAUACUCAACAGCUCGCAGUCAAG” reads -0.18; that for “GGUCACGUCUCAAUCAACUCAUCGGAGGGGGGGAAAACCCCUUUACCCUCGUCAUCAACAGCUCGCAGUCAAG”, 0.139; that for “GGUCACGUCUCAAUCAACUCUUCCCCCAGGGAAAACCCUGGUAUAUUCAACAGCUCGCAGUCAAG”, 0.0445. As to “GGUCACGUCUCAAUCAACUCAUUUUCAGGAGUUUUCUCCUGCUUACUCAACAGCUCGCAGUCAAG”, the binding signal (log2 fold change) stood at 0.0742. The figure for “GGUCACGUCUCAAUCAACUCUUUUCCAGGAGUUUCCUCCUGUUUACUCAACAGCUCGCAGUCAAG” is 0.0449; for “GGUCACGUCUCAAUCAACUCUAUCCCCAGGGAAAGCCCUGGUAUUUUCAACAGCUCGCAGUCAAG” it is 0.00742.

As for “GGUCACGUCUCAAUCAACUCAUCCUCCAGGGAAAGCCCUGGCUAUUUCAACAGCUCGCAGUCAAG”, the binding signal (log2 fold change) came out at 0.141.

For the sequence “GGUCACGUCUCAAUCAACUCAGUCUCCAGGGAAAACCCUGGCUAUUUCAACAGCUCGCAGUCAAG”, the binding signal (log2 fold change) was 0.29.

Consider “GGUCACGUCUCAAUCAACUCCCCGGAGGGGGGGAAAACCCCUUUACCCUCACUUUCAACAGCUCGCAGUCAAG”, for which the binding signal (log2 fold change) was -0.181.

Regarding “GGUCACGUCUCAAUCAACUCUACUCCAGGAGUUUCCUCCUGUAAACUCAACAGCUCGCAGUCAAG”, the binding signal (log2 fold change) stood at 0.0533. The figure for “GGUCACGUCUCAAUCAACUCAAUCGAGGGGGGGAAAACCCCUUUGCCCUCACUUUCAACAGCUCGCAGUCAAG” is 0.594; for “GGUCACGUCUCAAUCAACUCACAAGAGGGGGGGAAAACCCCUUUACCCUCACACUCAACAGCUCGCAGUCAAG” it is -0.599. In the case of “GGUCACGUCUCAAUCAACUCAAUCUCCAGGGAAACCCCUGGCUUUCUCAACAGCUCGCAGUCAAG”, the binding signal (log2 fold change) is 0.293. For the sequence “GGUCACGUCUCAAUCAACUCUUCUCCAGGAGUUUCCUCCUGUAUAUUCAACAGCUCGCAGUCAAG”, the binding signal (log2 fold change) is -0.0305. The result for “GGUCACGUCUCAAUCAACUCAACUCCCAGGGAAAACCCUGGCAUACUCAACAGCUCGCAGUCAAG” reads -0.165.

Consider “GGUCACGUCUCAAUCAACUCAGUCUCCAGGGAAACCCCUGGCUAUUUCAACAGCUCGCAGUCAAG”, for which the binding signal (log2 fold change) is -0.146. With “GGUCACGUCUCAAUCAACUCUUUUCCAGGAGUUUACUCCUGUUUAUUCAACAGCUCGCAGUCAAG”, the binding signal (log2 fold change) came out at 0.0243. The result for “GGUCACGUCUCAAUCAACUCCCUAGAGGGGGGGAAAACCCCUUUACCCUCCUUAUCAACAGCUCGCAGUCAAG” reads -0.311; that for “GGUCACGUCUCAAUCAACUCUUAAGAGGGGGGGAAAACCCCUUUGCCCUCAAUCUCAACAGCUCGCAGUCAAG”, -0.0452; that for “GGUCACGUCUCAAUCAACUCCCCAGAGGGGGGGAAAACCCCUUUGCCCUCCACAUCAACAGCUCGCAGUCAAG”, -0.595. The figure for “GGUCACGUCUCAAUCAACUCUAUCUCCAGGGAAACCCCUGGUUAACUCAACAGCUCGCAGUCAAG” is 0.0218; for “GGUCACGUCUCAAUCAACUCUAUCCCCAGGGAAACCCCUGGUAAUCUCAACAGCUCGCAGUCAAG” it is -0.0453; for “GGUCACGUCUCAAUCAACUCCAACGAGGGGGGGAAAACCCCUUUACCCUCUCAAUCAACAGCUCGCAGUCAAG” it is -0.0591. For the sequence “GGUCACGUCUCAAUCAACUCAAUUCCCAGGGAAAUCCCUGGUUAACUCAACAGCUCGCAGUCAAG”, the binding signal (log2 fold change) was 0.279. On to “GGUCACGUCUCAAUCAACUCAUCGCCCAGGGAAACCCCUGGUAUUCUCAACAGCUCGCAGUCAAG”, for which the binding signal (log2 fold change) was -0.0661. The figure for “GGUCACGUCUCAAUCAACUCUAAAGAGGGGGGGAAAACCCCUUUGCCCUCACAUUCAACAGCUCGCAGUCAAG” is -0.157; for “GGUCACGUCUCAAUCAACUCUUUCCCCAGGGAAAACCCUGGUAAACUCAACAGCUCGCAGUCAAG” it is -0.0108. The result for “GGUCACGUCUCAAUCAACUCUAUUUCAGGAGUUUACUCCUGCUAAUUCAACAGCUCGCAGUCAAG” reads -0.143; that for “GGUCACGUCUCAAUCAACUCAUUAGAGGGGGGGAAAACCCCUUUGCCCUCCACAUCAACAGCUCGCAGUCAAG”, -0.189. For the sequence “GGUCACGUCUCAAUCAACUCUUCUUCCAGGGAAACCCCUGGCUAUCUCAACAGCUCGCAGUCAAG”, the binding signal (log2 fold change) was -0.162. The figure for “GGUCACGUCUCAAUCAACUCUAUCUCAGGAGUUUACUCCUGUAUAUUCAACAGCUCGCAGUCAAG” is 0.337; for “GGUCACGUCUCAAUCAACUCUUUUCCAGGAGUUUUCUCCUGCAUAUUCAACAGCUCGCAGUCAAG” it is -0.111; for “GGUCACGUCUCAAUCAACUCAAUCUCCAGGGAAAGCCCUGGCAAACUCAACAGCUCGCAGUCAAG” it is -0.215. “GGUCACGUCUCAAUCAACUCUUCCUCCAGGGAAACCCCUGGUUUACUCAACAGCUCGCAGUCAAG”: the binding signal (log2 fold change) came to 0.0642.

Take “GGUCACGUCUCAAUCAACUCCCUAGAGGGGGGGAAAACCCCUUUGCCCUCCAAUUCAACAGCUCGCAGUCAAG”: the binding signal (log2 fold change) was -0.619. The result for “GGUCACGUCUCAAUCAACUCCUCAGAGGGGGGGAAAACCCCUUUACCCUCAUCAUCAACAGCUCGCAGUCAAG” reads 0.0549; that for “GGUCACGUCUCAAUCAACUCAUUUCCCAGGGAAAACCCUGGUAUACUCAACAGCUCGCAGUCAAG”, -0.0595. On to “GGUCACGUCUCAAUCAACUCAAUUCCCAGGGAAAGCCCUGGCAAAUUCAACAGCUCGCAGUCAAG”, for which the binding signal (log2 fold change) came to 0.238. The figure for “GGUCACGUCUCAAUCAACUCCCUGGAGGGGGGGAAAACCCCUUUACCCUCAAUUUCAACAGCUCGCAGUCAAG” is -0.0866; for “GGUCACGUCUCAAUCAACUCUUACGAGGGGGGGAAAACCCCUUUACCCUCAAAUUCAACAGCUCGCAGUCAAG” it is 0.37; for “GGUCACGUCUCAAUCAACUCUUCUUCAGGAGUUUUCUCCUGCUAUUUCAACAGCUCGCAGUCAAG” it is -0.0942. Regarding “GGUCACGUCUCAAUCAACUCUAACGAGGGGGGGAAAACCCCUUUGCCCUCAAUAUCAACAGCUCGCAGUCAAG”, the binding signal (log2 fold change) is -0.0749.

“GGUCACGUCUCAAUCAACUCUACUCCAGGAGUUUACUCCUGUUUUCUCAACAGCUCGCAGUCAAG”: the binding signal (log2 fold change) was 0.0252. “GGUCACGUCUCAAUCAACUCUUCUUCAGGAGUUUCCUCCUGCAUACUCAACAGCUCGCAGUCAAG”: the binding signal (log2 fold change) was -0.00215.
